Assay results: PubChem BioAssay AID463173 (ICCB-Longwood Screening Facility, Harvard Medical School, 2010)
About 4,300 (8.3%) of roughly 52,000 compounds were called active. No stated cut-off is given here; in the data, active means survival mostly below about 52% (no sharp cut-off); inactive means mostly above about 56%. This is one part of the list.

Test system: DeltatarO mutant
Assay: growth inhibition of S. aureus wild type versus tarO mutant, primary screen, teichoic acid synthesis inhibitors, RN4220, OD600 (AID 463173)
Conditions: OD600, 18 h, hits give low values, screened at 18.75 µg/mL (by protocol)

| SMILES | survival |
| --- | --- |
| Cc1ccc(NC(=O)/C(C#N)=C/c2ccc(-c3ccc(Cl)c(C(=O)O)c3)o2)cc1C | inactive: 70% |
| COc1ccc(Cn2c(C(=O)O)c(CNCCc3ccco3)c3ccc(OC)cc32)cc1 | inactive: 103% |
| CCOc1cccc(NC(=O)C2CC(=O)N(CC)C(=Nc3ccc(F)cc3)S2)c1 (centres undefined) | active: 17% |
| O=C1CS(=O)(=O)C2(C(=O)N(Cc3ccccc3Cl)c3ccccc32)N1c1ccc(F)cc1 (centres undefined) | inactive: 87% |
| N#CC1=C(N)C(C#N)(C#N)C(c2ccccc2)C2CCCC=C12 (centres undefined) | inactive: 97% |
| CC(C)(C)c1ccc(/C=C/C(=O)Nc2ccc(S(N)(=O)=O)cc2)cc1 | inactive: 63% |
| CCN(CC)S(=O)(=O)c1ccc2c(c1)N(CC(=O)Nc1ccccc1F)C(=O)C1CCCN21 (centres undefined) | inactive: 76% |
| COC(=O)c1c(-c2ccc(Cl)cc2)noc1N1CCN(c2cc(C)ccc2C)CC1 | inactive: 115% |
| COc1cccc(NC(=O)C2CCCN(S(=O)(=O)c3cn(C(C)C)cn3)C2)c1 (centres undefined) | inactive: 131% |
| CCOc1ccc(CCNC(=O)c2cc3cccc4c3n2CCS4)cc1 | inactive: 94% |
| CC(C)c1cccc(C(C)C)c1NC(=O)c1ccncc1 | inactive: 102% |
| COc1ccccc1N1CCN(c2ncnc3c2nnn3C)CC1 | inactive: 131% |
| Cc1ccc(C)c(NC(=O)CN2CCSc3ccc(S(=O)(=O)N4CCCC4)cc32)c1 | inactive: 60% |
| Cc1cc(SCC(=O)NCc2ccc(Cl)cc2)nc(=O)[nH]1 | inactive: 86% |
| CCCCCn1c(=O)[nH]c2cc(C(=O)Nc3ccc(F)c(F)c3)ccc2c1=O | inactive: 88% |
| N#Cc1ccc(-c2cccs2)nc1SCC(=O)Nc1cccc(C(F)(F)F)c1 | inactive: 48% |
| CCc1ccc(N2C(=O)C3C(C(=O)OC)=NN(C(C)=O)C3C2=O)cc1 (centres undefined) | inactive: 75% |
| Cc1ccc(S(=O)(=O)N2CCC(C(=O)NCc3ccccc3Cl)CC2)cc1 | inactive: 74% |
| CCN1CCN(Cc2c(O)ccc3c(C)c(-c4ccc(OC)cc4)c(=O)oc23)CC1 | inactive: 107% |
| CCN(CC)CCOC(=O)c1ccc(NC(=O)c2cc3c(=O)n(CC)c4ccccc4c3s2)cc1 | inactive: 80% |
| COc1ccc(NC(=O)C2=CC(c3ccco3)=NS(=O)(=O)N2C)cc1 | inactive: 105% |
| Cc1ccccc1S(=O)(=O)Cc1ccc(C(=O)N2CCN(c3cccc(Cl)c3)CC2)o1 | active: 54% |
| CC(NC(=O)C1CCN(S(=O)(=O)Cc2ccccc2)CC1)c1ccccc1 (centres undefined) | inactive: 68% |

| SMILES | survival |
| --- | --- |
| CCCc1nc2ccccc2c(NC(=O)CN(CC)CC)c1CC | inactive: 70% |
| Cn1c(-c2ccc(NC(=O)c3ccccc3)cc2)n[nH]c1=S | inactive: 72% |
| Cc1cc(S(=O)(=O)N2CCN(Cc3noc(CCC(=O)N4CCCCC4)n3)CC2)ccc1F | inactive: 89% |
| CCCc1nn2c(=O)cc(COC(=O)c3ccc(NC(=O)COc4ccc(F)cc4)cc3)nc2s1 | active: 37% |
| CN(C)c1ccc(CNC(=O)C2CCN(c3nc4ccccc4[nH]3)CC2)cc1 | inactive: 63% |
| COC(=O)c1cc2occc2n1Cc1nc(-c2ccccc2)oc1C | inactive: 90% |
| CC(C)c1ccc(S(=O)(=O)N2CCC(n3c(C(F)(F)F)nc4cccnc43)CC2)cc1 | inactive: 73% |
| CCOC(=O)c1oc2ccc(S(=O)(=O)n3nc(-c4ccc(C)cc4)cc3N)cc2c1C | inactive: 67% |
| COCCn1nnnc1CN(Cc1ccco1)Cc1cc2cc(OC)ccc2[nH]c1=O | inactive: 97% |
| COc1ccc(NC(=O)C2CCN(S(=O)(=O)c3cccc(-c4noc(C)n4)c3)CC2)cc1OC | inactive: 81% |
| Cc1cc(C)nc(NC(=O)C(c2ccccc2)c2ccccc2)n1 | inactive: 115% |
| CCOCCn1ccc2c(OCC(=O)Nc3ccc(C(N)=O)cc3)cccc2c1=O | active: 37% |
| Cc1ccc(C(=O)NCC(c2ccc3c(c2)OCO3)N2CCOCC2)cc1C (centres undefined) | inactive: 70% |
| CCOC(=O)c1cc(S(=O)(=O)Nc2cc(OC)ccc2OC)[nH]n1 | inactive: 119% |
| O=C(CSc1cn(CC(=O)N2CCCC2)c2ccccc12)Nc1ccc(Cl)cc1 | inactive: 84% |
| COc1ccc(Cl)cc1NC(=O)c1cc2c(=O)n3ccccc3nc2s1 | inactive: 75% |
| COc1ccc(CNc2nc(-c3ccco3)nn2S(=O)(=O)c2ccc(Cl)cc2)cc1OC | inactive: 61% |
| Cc1cccc(NC(=O)Cn2cc(C(=O)C3CCCCC3)c3ccccc32)c1 | inactive: 123% |
| CC(C)c1ccc(-c2nnn(CC(N)=O)n2)cc1 | inactive: 85% |
| CCOC(=O)CC(NC(=O)CCc1c(C)nc2c(-c3ccccc3)c(C)nn2c1C)c1ccc(OC(C)C)cc1 (centres undefined) | inactive: 66% |
| COc1ccc(Cn2c(CCC(=O)NCc3ccc(Cl)cc3)nc3cccnc32)cc1 | inactive: 112% |
| COc1cc2c(-c3cccc(Cl)c3)nc3c(c(C)nn3-c3ccccc3)c2cc1OC | inactive: 75% |
| COc1cccc(CNC(=O)c2cnc3sc(N4CCCC4)nn3c2=O)c1OC | inactive: 91% |

| SMILES | survival |
| --- | --- |
| CSc1ccc(CCNC(=O)NCc2noc3ccccc23)cc1 | inactive: 55% |
| Cc1ccc2cc(C#N)c(N3CCCN(C(=O)C4CCCCC4)CC3)nc2c1 | inactive: 98% |
| O=C1Nc2ccccc2Oc2cc(Oc3ccccc3)ccc21 | active: 33% |
| COc1ccc(NC(=O)c2sc3nc4c(cc3c2N)CN(Cc2ccccc2)CC4)c(OC)c1 | active: 47% |
| COc1ccc(NC(=O)Cn2c(SCc3ccc(C)cc3)nc3cccnc32)cc1OC | inactive: 83% |
| Cc1ccc(C)c(CN2C(=O)c3ccccc3S(=O)(=O)c3ccc(C(=O)OCC4CCCO4)cc32)c1 (centres undefined) | inactive: 94% |
| CN(c1ccccc1)S(=O)(=O)c1ccc(NC(=O)c2nc(S(C)(=O)=O)ncc2Cl)cc1 | active: -1% |
| COc1ccc(-c2c(C#N)c(SCC(=O)Nc3ccccc3C)nc(C)c2C(=O)Nc2ccc(Cl)cc2)cc1 | inactive: 160% |
| COC(=O)c1c(NC(=O)CCCOc2cccc(C)c2)sc2c1CCC2 | active: 15% |
| Cc1cc(O)c(C(c2cccc(F)c2)N2CCN(c3ccccc3)CC2)c(=O)n1Cc1ccco1 (centres undefined) | inactive: 66% |
| CCOCC(=O)Nc1nnc(CC)s1 | inactive: 66% |
| Cc1cc(C)n(-c2nnc(Nc3ccc(C)c(C)c3)c3ccccc23)n1 | inactive: 83% |
| O=C(Cn1c(=O)nc(-c2ccccc2)c2cc(Cl)ccc21)NCCCc1ccccc1 | inactive: 54% |
| CCc1nn(CC(=O)NC2CC2)c(=O)c2cc3ccccc3n12 | inactive: 120% |
| COc1cccc(CNC(=O)c2c3c(nc4ccccc24)C(=O)N(C2CCCCC2)C3)c1 | active: 46% |
| Cn1cc(C(=O)NCc2ccccc2)c(=O)c2cc(S(=O)(=O)N3CCCCCC3)ccc21 | inactive: 118% |
| CCc1ccc(OCC(=O)NCC(c2ccc(OC)cc2)N2CCOCC2)cc1 (centres undefined) | inactive: 73% |
| CCSc1nc(=O)c2c(n1C)NC(=O)CC2c1ccc(O)cc1OC (centres undefined) | inactive: 57% |
| Cc1cccc(C)c1NC(=O)CN(C)S(=O)(=O)c1ccc2c(c1)n(C)c(=O)c(=O)n2C | inactive: 89% |
| CC(=O)c1cccc(NC(=O)Cn2c(C)c3cnn(-c4ccccc4)c(=O)c3c2C)c1 | inactive: 114% |
| Cc1ccc2c(CNC3CCC(C)CC3)c(C(=O)O)n(Cc3cccc(F)c3)c2c1 (centres undefined) | inactive: 90% |
| CCN(CC)CCNC(=O)c1ccc2c(c1)N(Cc1ccccc1)C(=O)c1ccccc1S2=O (centres undefined) | inactive: 140% |
| COc1ccc(-n2c(=O)c3sc4ccccc4c3n(Cc3ccccc3)c2=O)cc1 | inactive: 84% |

| SMILES | survival |
| --- | --- |
| COc1cc(NC(=O)c2cc3nc(-c4ccccc4)cc(-c4ccccc4)n3n2)c(OC)cc1Cl | inactive: 64% |
| CC1CCN(c2nc3ccc(C(=O)NCc4ccc(Cl)cc4)cc3s2)CC1 | inactive: 128% |
| O=C1C2C3C=CC(C3)C2C(=O)N1CCN1CCN(S(=O)(=O)c2cccs2)CC1 (centres undefined) | inactive: 66% |
| COc1ccc(C(=O)Nc2ccc3nc(SCC(=O)N4CCOCC4)sc3c2)cc1 | inactive: 82% |
| COC(=O)c1ccc(OC)c(Cn2c(=O)n(-c3ccc(C)cc3)c(=O)c3c2cnn3C)c1 | inactive: 68% |
| COc1ccc(C2CC(=O)N(CC(=O)Nc3ccc(C(F)(F)F)cc3)c3ccccc3S2)cc1 (centres undefined) | inactive: 88% |
| CCCCc1ccc(Nc2ncnc3c2cnn3-c2ccc(C)cc2)cc1 | active: 17% |
| CCC1CCCCN1C(=O)Cn1c(=O)n(CC2CCC(C(=O)NC)CC2)c(=O)c2sccc21 (centres undefined) | inactive: 102% |
| COc1cc(OC)c(NC(=O)c2cc(S(=O)(=O)N3CCCC3)cn2C)cc1Cl | inactive: 66% |
| CC(NC(=O)CSc1n[nH]c(-c2ccccc2)n1)c1nc2ccccc2n1C (centres undefined) | inactive: 80% |
| Cc1ccc(S(=O)Cc2nc(-c3ccc(C(=O)NC(C)c4ccccc4)cc3)oc2C)cc1 (centres undefined) | inactive: 88% |
| Cc1ccc(CN2C(=O)C(C)(C)Oc3ccc(C(=O)NC4CC4)cc32)cc1 | inactive: 95% |
| O=C(Nc1ccc(OC(F)(F)F)cc1)NC1COc2ccccc2C1 (centres undefined) | active: 0% |
| C=CCC(C#Cc1ccccc1)N(C)C (centres undefined) | inactive: 94% |
| COc1ccc(Cl)cc1S(=O)(=O)Nc1cccc(-c2ccc(N3CCOCC3)nn2)c1 | inactive: 97% |
| O=C(/C=C/c1ccccc1)N1CCCC1=O | inactive: 94% |
| Cc1ccc2c(c1)nc(SCC(O)c1ccc(Br)cc1)n2C (centres undefined) | inactive: 70% |
| COc1ccc(N2CCN(Cc3nc4c(c(=O)[nH]c(=O)n4C)n3Cc3ccccc3)CC2)cc1 | inactive: 112% |
| Cn1c(=O)c2sccc2n2c(CCC(=O)NCc3ccccc3)nnc12 | inactive: 135% |
| CC(C)=CC1C(C(=O)Nc2ccc(Cl)cn2)C1(C)C (centres undefined) | inactive: 70% |
